For this assay, the target named is Nonstructural protein 3 (Zika virus) (UniProt A0A024AXB9).
[1] abbreviates: PRVABC59, Concentration 15.0 uM, Number of replicates 1.0.
Where [2] appears, read: PRVABC59, Concentration 50.0 uM, Number of replicates 1.0.

Screen size: about 2,700 compounds; about 160 (5.9%) showed an effect of 50% or more. Some of the results follow.

As usually defined, the inhibition is the change of the read-out against control, counted positive when it falls.

Chain of UniProt A0A024AXB9 (A0A024AXB9 as listed by the source): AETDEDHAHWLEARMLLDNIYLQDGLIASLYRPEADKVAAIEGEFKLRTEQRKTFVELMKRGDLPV

`O=C(Nc1cccc(I)c1)c1cc(Cl)ccc1NS(=O)(=O)c1ccc(Oc2ccccc2Cl)cc1`: the inhibition under setting [1] was found to be 48.1%. Take `O=Cc1ccc(N2CCC(C(=O)N3CCN(C(=O)N4CCCCC4)CC3)CC2)cc1`: under setting [2], the inhibition was 20.3%. As for `Cc1ccc(C(=O)N2CCC(NC(=O)C3CCN(c4ccc(C=O)cc4)CC3)CC2)cc1`, under setting [2], the inhibition is 25.4%.

Turning to `CSCC[C@H](NC(=O)OC(C)(C)C)C(=O)N1CCC[C@H]1C(=O)Nc1ccc2c(c1)B(O)OC2`, the inhibition by setting is: (PRVABC59, Concentration 49.5 uM, Number of replicates 2.0, Standard deviation 2.1516825960521024 %) -5.65%; (PRVABC59, Concentration 99.01 uM, Number of replicates 2.0, Standard deviation 1.7183871994888231 %) -4.38%; (PRVABC59, Concentration 198.0 uM, Number of replicates 2.0, Standard deviation 1.3041143615324509 %) -3.13%. In the case of `C[C@H](NC(=O)c1cc(Cl)ccc1NS(=O)(=O)c1ccc(Oc2ccccc2Cl)cc1)c1ccc([N+](=O)[O-])cc1`, under setting [1], the inhibition amounted to 45.5%. Regarding `Cc1cc(Br)c(Cl)cc1NC(=O)C1CCN(c2ccc(C=O)cc2)CC1`, the inhibition under setting [2] came out at 26.8%. `Cc1c(C2CCNCC2)cnn1Cc1nnc(-c2ccccc2)o1`: the inhibition was -1.03% (PRVABC59, Concentration 49.5 uM, Number of replicates 2.0, Standard deviation 1.8004573341502979 %); -0.513% (PRVABC59, Concentration 99.01 uM, Number of replicates 2.0, Standard deviation 1.9693745062100474 %); -0.535% (PRVABC59, Concentration 198.0 uM, Number of replicates 2.0, Standard deviation 0.29610171483577025 %). Regarding `Cc1c(C(=O)NCCn2cnnn2)ccc(O)c1NC(=O)c1ccncc1F`, the inhibition was -0.69% (PRVABC59, Concentration 49.5 uM, Number of replicates 2.0, Standard deviation 1.9093792681449115 %); -1.37% (PRVABC59, Concentration 99.01 uM, Number of replicates 2.0, Standard deviation 1.3658628031285187 %); 1.16% (PRVABC59, Concentration 198.0 uM, Number of replicates 2.0, Standard deviation 0.6788903933391712 %). With `Cc1cc(CO)c2cccc(NC(=O)[C@@H](N)c3ccsc3)c2n1`, the inhibition (PRVABC59, Concentration 49.95 uM, Number of replicates 2.0, Standard deviation 2.8402698834155693 %) worked out at 0.802% and the inhibition (PRVABC59, Concentration 99.9 uM, Number of replicates 2.0, Standard deviation 3.07612314192035 %) came to 11%. Consider `C[C@H]1CCC[C@H](C)N1CCNC(=O)C1CCN(c2ccc(C=O)cc2)CC1`, for which, under setting [2], the inhibition came to 22.2%. With `Cc1cc(CO)c2cccc(Cc3cccc(C(=O)NCc4ccc(S(N)(=O)=O)cc4)c3)c2n1`, the inhibition (PRVABC59, Concentration 99.9 uM, Number of replicates 2.0, Standard deviation 3.240458087536571 %) was -8.63%. As for `Cc1c(Br)cnc(NC(=O)c2cc(Cl)ccc2NS(=O)(=O)c2ccc(Oc3ccccc3Cl)cc2)c1[N+](=O)[O-]`, the inhibition under setting [1] amounted to 23.1%. With `CN(Cc1nc2ccsc2c(=O)[nH]1)C(=O)c1cc(Cl)ccc1NS(=O)(=O)c1ccc(Oc2ccccc2Cl)cc1`, the inhibition under setting [1] amounted to 11.9%.

Turning to `Cc1cc(CO)c2cccc(Cc3cccc(NC(=O)c4cc(C(F)F)nn4C)c3)c2n1`, the inhibition (PRVABC59, Concentration 49.95 uM, Number of replicates 2.0, Standard deviation 0.2559254422270031 %) was -3.59% and the inhibition (PRVABC59, Concentration 99.9 uM, Number of replicates 2.0, Standard deviation 0.34625197592436774 %) stood at 0.543%.

On to `c1ccc2c([C@H]3CCN(Cc4c[nH]cn4)C3)c[nH]c2c1`, for which the inhibition (PRVABC59, Concentration 49.5 uM, Number of replicates 2.0, Standard deviation 3.7580470125342442 %) came to 0.152%; the inhibition (PRVABC59, Concentration 99.01 uM, Number of replicates 2.0, Standard deviation 3.2719105104126136 %) was determined as 3.08%; the inhibition (PRVABC59, Concentration 198.0 uM, Number of replicates 2.0, Standard deviation 2.8090237272161387 %) came out at 8.45%. For the compound `Cc1cnccc1NC(=O)c1cc(C2CC2)n(C)n1`, the inhibition was 1.35% (PRVABC59, Concentration 49.5 uM, Number of replicates 2.0, Standard deviation 2.9772917324416994 %); 0.048% (PRVABC59, Concentration 99.01 uM, Number of replicates 2.0, Standard deviation 3.181871776470306 %); -2.14% (PRVABC59, Concentration 198.0 uM, Number of replicates 2.0, Standard deviation 2.365728105759831 %). As to `O=Cc1ccc(N2CCC(C(=O)N3CCN(c4ccccc4O)CC3)CC2)cc1`, under setting [2], the inhibition stood at 27.4%. `Cc1cc(CO)c2cccc(N3CCCNCC3)c2n1`: the inhibition reads like this: (PRVABC59, Concentration 49.95 uM, Number of replicates 2.0, Standard deviation 0.43156080086596493 %) -8.47%; (PRVABC59, Concentration 99.9 uM, Number of replicates 2.0, Standard deviation 1.696132820538101 %) -9.37%. Regarding `O=C(Nc1ccc(C(F)(F)F)cc1)c1cc(Cl)ccc1NS(=O)(=O)c1ccc(Oc2ccccc2Cl)cc1`, under setting [1], the inhibition is 26.8%. As to `Cc1cc(CO)c2cccc(Cc3cccc(NC(=O)CCC4CCNCC4)c3)c2n1`, the inhibition (PRVABC59, Concentration 49.95 uM, Number of replicates 2.0, Standard deviation 0.07125447361688171 %) amounted to 70.2% and the inhibition (PRVABC59, Concentration 99.9 uM, Number of replicates 2.0, Standard deviation 0.2799306012648679 %) is 94.6%. `O=C(NC1CCN(Cc2ccccc2F)CC1)c1cc(Cl)ccc1NS(=O)(=O)c1ccc(Oc2ccccc2Cl)cc1`: the inhibition under setting [1] came to 19.2%.

In the case of `CC(C)(CC(=O)Nc1cccc(CN)c1)NC(=O)OCc1ccccc1`, the inhibition (PRVABC59, Concentration 49.5 uM, Number of replicates 2.0, Standard deviation 1.9183842373572035 %) was -0.42%; the inhibition (PRVABC59, Concentration 99.01 uM, Number of replicates 2.0, Standard deviation 0.3162171833714132 %) was determined as 2.76%; the inhibition (PRVABC59, Concentration 198.0 uM, Number of replicates 2.0, Standard deviation 0.9637096075628176 %) is 7.5%. For `O=Cc1ccc(N2CCC(C(=O)N3CCC[C@H](C(F)(F)F)C3)CC2)cc1`, the inhibition under setting [2] came out at 30.7%. Take `O=C(NCc1c(F)ccc(F)c1F)c1cc(Cl)ccc1NS(=O)(=O)c1ccc(Oc2ccccc2Cl)cc1`: under setting [1], the inhibition was determined as 37.4%.

Consider `Cc1cc(CO)c2cccc(Cc3ccccc3NC(=O)C[C@H]3CCCN3)c2n1`, for which the inhibition (PRVABC59, Concentration 99.9 uM, Number of replicates 1.0) is -6.9%. With `CC(=O)N1CCC(N(C)C(=O)c2cc(Cl)ccc2NS(=O)(=O)c2ccc(Oc3ccccc3Cl)cc2)CC1`, the inhibition under setting [1] turned out to be 11.3%. Same read-out and setting: the figure for `O=C(Nc1ccccc1Sc1ccccc1)c1cc(Cl)ccc1NS(=O)(=O)c1ccc(Oc2ccccc2Cl)cc1` is 25.8%. The same measure, in the same setting: the figure for `O=C(Nc1ccc2nccnc2c1Br)c1cc(Cl)ccc1NS(=O)(=O)c1ccc(Oc2ccccc2Cl)cc1` is 26.7%. With `COc1cc(C(=O)N(C)C)nc(N2CCNCC2)n1`, the inhibition was -3.23% (PRVABC59, Concentration 49.5 uM, Number of replicates 2.0, Standard deviation 1.8847476383507809 %); -4.42% (PRVABC59, Concentration 99.01 uM, Number of replicates 2.0, Standard deviation 2.7378897935859983 %); -4.08% (PRVABC59, Concentration 198.0 uM, Number of replicates 2.0, Standard deviation 3.521387569111147 %). As for `NC(=O)C1(N2CCCCC2)CCN(C(=O)c2cc(Cl)ccc2NS(=O)(=O)c2ccc(Oc3ccccc3Cl)cc2)CC1`, the inhibition under setting [1] stood at 8.91%. As for `C[C@H](NC(=O)c1cc(Cl)ccc1NS(=O)(=O)c1ccc(Oc2ccccc2Cl)cc1)c1cccc(C(F)(F)F)c1`, the inhibition under setting [1] turned out to be 39.3%. With `OB(O)c1cccc(-c2noc([C@H]3CCN4CCC[C@H]4C3)n2)c1`, the inhibition reads like this: (PRVABC59, Concentration 49.5 uM, Number of replicates 2.0, Standard deviation 0.028602200098645038 %) -3.1%; (PRVABC59, Concentration 99.01 uM, Number of replicates 2.0, Standard deviation 0.7191400436111959 %) -2.22%; (PRVABC59, Concentration 198.0 uM, Number of replicates 2.0, Standard deviation 0.04698926852370469 %) -0.756%. Turning to `CC(C)(C)N(C[C@H](O)c1ccc(O)c(CO)c1)C(=O)c1cc(Cl)ccc1NS(=O)(=O)c1ccc(Oc2ccccc2Cl)cc1`, under setting [1], the inhibition is 14.6%. For `Cn1ccnc1-c1cc(NC(=O)c2cnn([C@H]3CCCNC3)c2)[nH]n1`, the inhibition runs as follows: (PRVABC59, Concentration 49.5 uM, Number of replicates 2.0, Standard deviation 0.31193658084925274 %) 6.99%; (PRVABC59, Concentration 99.01 uM, Number of replicates 2.0, Standard deviation 0.6162651497801069 %) 9.53%; (PRVABC59, Concentration 198.0 uM, Number of replicates 2.0, Standard deviation 0.2510711368029124 %) 10.9%. Turning to `NCCOc1cccc2c1CCB(O)O2`, the inhibition is -3.64% (PRVABC59, Concentration 49.5 uM, Number of replicates 2.0, Standard deviation 0.29139016078758595 %); -4.36% (PRVABC59, Concentration 99.01 uM, Number of replicates 2.0, Standard deviation 0.012591118111538527 %); -1.98% (PRVABC59, Concentration 198.0 uM, Number of replicates 2.0, Standard deviation 0.9209367940578399 %). Take `O=C(c1cc(Cl)ccc1NS(=O)(=O)c1ccc(Oc2ccccc2Cl)cc1)N1CCN(CCOc2ccccc2)CC1`: the inhibition under setting [1] was 22%. As to `Cc1cc(CO)c2cccc(NC(=O)CC3CCNCC3)c2n1`, the inhibition was 41.5% (PRVABC59, Concentration 49.95 uM, Number of replicates 2.0, Standard deviation 2.2586421938534733 %) and 81% (PRVABC59, Concentration 99.9 uM, Number of replicates 2.0, Standard deviation 1.48045087514324 %). Consider `O=C(c1cc(Cl)ccc1NS(=O)(=O)c1ccc(Oc2ccccc2Cl)cc1)N1CCN(Cc2cc(F)ccc2F)CC1`, for which the inhibition under setting [1] is 17.7%.

Values taken from ChEMBL document CHEMBL5606458, “ASAP - ZIKV NS2B-NS3 protease fluorescence single point” (2024).
